Assay results taken from article PMC2941464.
No constants are given. Whether binding was seen depends on the method and setting. In cells and extracts the contact can be indirect. Some binding calls cover weakened binding; strength is not graded here. For some assays here: Where a sequence is shown, tags or fusion partners need not be part of it.

Chains of the proteins cited; added tags and fusions are not shown.
UniProt Q9UKV8: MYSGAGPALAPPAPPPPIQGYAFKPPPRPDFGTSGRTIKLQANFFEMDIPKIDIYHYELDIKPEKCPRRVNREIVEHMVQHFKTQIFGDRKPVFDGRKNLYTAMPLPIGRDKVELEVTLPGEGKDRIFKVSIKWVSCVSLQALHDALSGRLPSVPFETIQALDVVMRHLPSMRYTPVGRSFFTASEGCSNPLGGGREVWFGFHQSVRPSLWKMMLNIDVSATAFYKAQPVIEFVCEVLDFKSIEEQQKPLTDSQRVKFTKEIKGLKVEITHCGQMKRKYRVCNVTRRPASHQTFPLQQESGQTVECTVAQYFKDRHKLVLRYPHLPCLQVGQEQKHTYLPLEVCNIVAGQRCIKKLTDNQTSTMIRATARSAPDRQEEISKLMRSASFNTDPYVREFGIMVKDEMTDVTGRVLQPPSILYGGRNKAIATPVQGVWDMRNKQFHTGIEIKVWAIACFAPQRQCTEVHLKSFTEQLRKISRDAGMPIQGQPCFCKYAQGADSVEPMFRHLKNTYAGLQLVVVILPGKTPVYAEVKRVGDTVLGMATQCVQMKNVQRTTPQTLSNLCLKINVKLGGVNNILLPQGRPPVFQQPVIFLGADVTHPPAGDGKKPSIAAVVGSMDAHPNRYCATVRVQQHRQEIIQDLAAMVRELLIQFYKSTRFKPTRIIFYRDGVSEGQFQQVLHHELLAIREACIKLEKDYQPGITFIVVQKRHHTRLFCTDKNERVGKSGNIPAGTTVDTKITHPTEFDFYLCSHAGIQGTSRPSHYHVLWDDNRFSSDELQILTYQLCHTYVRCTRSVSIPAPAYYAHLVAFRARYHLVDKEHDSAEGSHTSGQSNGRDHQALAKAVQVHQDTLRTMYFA

Columns and labels:
[1] = target: T1, QKI-6, endogenous in U343 cells (human (endogenous in U343)) (UniProt Q96PU8); assay: co-IP; endogenous proteins in U343 cell lysate (Triton X-100 lysis buffer); IP with anti-QKI-5, -6 or -7 antibodies (control IgG), blot with anti-Ago2; for QKI-6 also after 1 mg/ml RNase A, 2 U/100 µl RNase V1 or RNase inhibitor at 37°C for 1 hr
T1 sequence: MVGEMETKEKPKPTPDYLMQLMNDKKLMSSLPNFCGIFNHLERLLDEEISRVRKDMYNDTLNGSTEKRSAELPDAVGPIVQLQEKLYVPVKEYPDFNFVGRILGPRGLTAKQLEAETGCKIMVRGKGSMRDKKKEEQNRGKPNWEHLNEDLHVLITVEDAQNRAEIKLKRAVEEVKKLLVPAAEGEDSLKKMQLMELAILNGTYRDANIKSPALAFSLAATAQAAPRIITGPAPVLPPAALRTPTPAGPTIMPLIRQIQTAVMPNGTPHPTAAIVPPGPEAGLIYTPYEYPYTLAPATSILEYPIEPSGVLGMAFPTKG

[2] = target: T2, QKI-7, endogenous in U343 cells (human (endogenous in U343)) (UniProt Q96PU8); assay: as above
T2 sequence: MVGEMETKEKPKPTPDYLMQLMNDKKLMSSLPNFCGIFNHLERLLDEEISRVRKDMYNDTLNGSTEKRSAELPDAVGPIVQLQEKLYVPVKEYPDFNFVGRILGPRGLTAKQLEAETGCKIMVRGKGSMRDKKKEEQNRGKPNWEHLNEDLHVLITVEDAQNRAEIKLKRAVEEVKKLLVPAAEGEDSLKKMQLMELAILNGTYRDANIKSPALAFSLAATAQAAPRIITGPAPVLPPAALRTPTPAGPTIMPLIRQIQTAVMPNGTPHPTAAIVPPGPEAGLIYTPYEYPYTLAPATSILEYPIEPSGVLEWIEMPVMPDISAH

[3] = target: T3, QKI-5, endogenous in U343 cells (human (endogenous in U343)) (UniProt Q96PU8); assay: as above
T3 sequence: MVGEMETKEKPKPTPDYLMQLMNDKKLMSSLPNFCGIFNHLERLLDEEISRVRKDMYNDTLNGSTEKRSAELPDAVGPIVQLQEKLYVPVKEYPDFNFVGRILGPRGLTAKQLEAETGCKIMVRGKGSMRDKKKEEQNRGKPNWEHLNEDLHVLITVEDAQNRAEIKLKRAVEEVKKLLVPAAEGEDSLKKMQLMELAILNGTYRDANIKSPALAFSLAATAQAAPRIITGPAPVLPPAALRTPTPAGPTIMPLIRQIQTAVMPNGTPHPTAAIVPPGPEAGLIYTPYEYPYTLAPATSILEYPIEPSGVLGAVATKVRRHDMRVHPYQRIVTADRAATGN

GFP-QKI:1-205 = target: T4, GFP-QKI:1-205 (UniProt Q9QYS9); assay: co-IP; HEK293 cells transfected with GFP-QKI-6 or its truncation mutants; lysate (Triton X-100 lysis buffer); IP with anti-GFP, blot with anti-Ago2
T4 sequence: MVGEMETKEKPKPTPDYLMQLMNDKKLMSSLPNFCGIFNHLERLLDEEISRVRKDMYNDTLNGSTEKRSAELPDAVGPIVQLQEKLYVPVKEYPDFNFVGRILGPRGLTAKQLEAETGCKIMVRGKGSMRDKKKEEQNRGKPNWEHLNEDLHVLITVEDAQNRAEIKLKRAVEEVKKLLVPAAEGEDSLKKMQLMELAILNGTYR

GFP-QKI:1-180 = target: T5, GFP-QKI:1-180 (UniProt Q9QYS9); assay: as above
T5 sequence: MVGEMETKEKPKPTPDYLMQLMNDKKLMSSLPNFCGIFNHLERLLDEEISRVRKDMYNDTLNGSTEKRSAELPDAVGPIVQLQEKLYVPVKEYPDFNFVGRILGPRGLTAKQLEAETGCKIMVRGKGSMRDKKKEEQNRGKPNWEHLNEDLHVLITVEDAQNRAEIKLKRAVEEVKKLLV

Substance	binding [1]	binding [2]	binding [3]	binding (GFP-QKI:1-205)	binding (GFP-QKI:1-180)
argonaute 2 (Ago2), endogenous in U343 cells (from UniProt Q9UKV8 1-859)	binds	binds	binds	–	–
myc-tagged full-length Ago2 (from UniProt Q9UKV8 1-859)	–	–	–	binds	no binding
